# From a collection of fitness landscapes (doi:10.1016/j.celrep.2020.107928)
# Over roughly 81,000 sequences, “one-hybrid fitness for binding NBS DNA” has its median near -0.1; the highest 2% begin near 0.36. The list shows a part of the results.
# B1: Caulobacter ParB omega fusion; a variant is named by its letters at X, in order, B8GW30 (parent)
# chain: MESVVVGEPGMSEGRRGLGRGLSALLGEVDAAPAQAPGEQLGGSREAPIEILQRNPDQPRRTFREEDLEDLSNSIREKGVLQPILVRPSPDTAGEYQIVAGERAWRAAQRAGLKTVPIMVRELDDLAVLEIGIIENVQRADLNVLEEALSYKVLMEKFERTQENIAQTIGKSXSHVANXMRLLXLPDEVQSYLVSGELTAXHARAIAAAADPVALAKQIIEGGLSVRETEALARKAPNLSAGKSKGGRPPRVKDTDTQALESDLSSVLGLDVSIDHRGSTGTLTITYATLEQLDDLCNRLTRGI
# Variants of: B1
# Assay: one-hybrid fitness for binding NBS DNA (the Noc-binding site; scaled: cognate 1, non-cognate 0); higher = stronger binding
# Details: with NBS DNA site
# How it was run: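 Caulobacter ParB libraries with four specificity codons randomised were screened by bacterial one-hybrid selection in the E. coli USO strain, using a HIS3 reporter whose site lies 19 bp from the promoter. Selection ran for 48 hours at 37°C on M9 lacking histidine, with 0.1 mM IPTG and 5 mM 3-AT. Plasmids were Illumina-sequenced before and after selection, three replicate libraries were pooled, and variants with under 10 reads were dropped. Fitness is the log change in each variant's read ratio to wild type, rescaled against the cognate and non-cognate sites.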
row,Variant,one-hybrid fitness for binding NBS DNA
1,LSIR,≤ 0.2
2,TRLS,≤ 0.2
3,FMTR,≤ 0.2
4,AQEI,≤ 0.2
5,KREW,≤ 0.2
6,LQCA,≤ 0.2
7,WCFG,≤ 0.2
8,LPDV,≤ 0.2
9,QSDI,≤ 0.2
10,IPAC,≤ 0.2
11,QNDD,≤ 0.2
12,GLQV,≤ 0.2
13,VYAT,≤ 0.2
14,QGEC,≤ 0.2
15,KEPT,≤ 0.2
16,TGTH,≤ 0.2
17,KYDR,≤ 0.2
18,RYPS,≤ 0.2
19,GCIC,≤ 0.2
20,LICV,≤ 0.2
21,NPPK,≤ 0.2
22,NPFT,≤ 0.2
23,SDKR,≤ 0.2
24,LVVT,≤ 0.2
25,TEYT,≤ 0.2

row,Variant,one-hybrid fitness for binding NBS DNA
1,EWGC,≤ 0.2
2,CGVC,≤ 0.2
3,QRIA,0.436
4,DETR,≤ 0.2
5,GTTS,≤ 0.2
6,LTTR,≤ 0.2
7,HTYW,≤ 0.2
8,LHAA,≤ 0.2
9,ACDY,≤ 0.2
10,EPVT,≤ 0.2
11,MGST,≤ 0.2
12,DFID,≤ 0.2
13,YYWS,≤ 0.2
14,HAML,≤ 0.2
15,PLAR,≤ 0.2
16,HDSL,≤ 0.2
17,LGQL,≤ 0.2
18,PYIE,≤ 0.2
19,THCE,≤ 0.2
20,YPIT,≤ 0.2
21,IIYI,≤ 0.2
22,YASL,≤ 0.2
23,HVMF,≤ 0.2
24,VLLI,≤ 0.2
25,PQVC,≤ 0.2

row,Variant,one-hybrid fitness for binding NBS DNA
1,DNWR,≤ 0.2
2,WYSV,≤ 0.2
3,KDKE,≤ 0.2
4,VLPS,≤ 0.2
5,GLLG,≤ 0.2
6,KRFC,≤ 0.2
7,ANYF,≤ 0.2
8,RHND,≤ 0.2
9,MQVQ,≤ 0.2
10,QCWR,0.49
11,DPHN,≤ 0.2
12,WGRW,≤ 0.2
13,QAES,≤ 0.2
14,QVRS,0.482
15,NLGS,≤ 0.2
16,QWCF,≤ 0.2
17,QWKG,≤ 0.2
18,NSYS,≤ 0.2
19,VHMV,≤ 0.2
20,QCHD,≤ 0.2
21,WSKR,0.359
22,TWMS,≤ 0.2
23,ASIY,≤ 0.2
24,RWAW,≤ 0.2
25,LEQT,≤ 0.2

row,Variant,one-hybrid fitness for binding NBS DNA
1,MYRK,≤ 0.2
2,DRPL,≤ 0.2
3,PSTK,≤ 0.2
4,MWPT,≤ 0.2
5,MRGC,≤ 0.2
6,GHIC,≤ 0.2
7,QHSY,≤ 0.2
8,HWNC,≤ 0.2
9,VCKA,≤ 0.2
10,SWPA,≤ 0.2
11,VNNC,≤ 0.2
12,HQPS,≤ 0.2
13,IHEE,≤ 0.2
14,QFPT,≤ 0.2
15,FGYL,≤ 0.2
16,KEHD,≤ 0.2
17,TFHC,≤ 0.2
18,RWIN,≤ 0.2
19,GHAL,≤ 0.2
20,LSAY,≤ 0.2
21,RHWF,≤ 0.2
22,RVNH,0.213
23,YPST,≤ 0.2
24,HWWW,≤ 0.2
25,ESPV,≤ 0.2

row,Variant,one-hybrid fitness for binding NBS DNA
1,LLKP,≤ 0.2
2,PTDP,≤ 0.2
3,EMDI,≤ 0.2
4,ADKS,≤ 0.2
5,CVSG,≤ 0.2
6,MGQS,≤ 0.2
7,SMRY,≤ 0.2
8,ADPC,≤ 0.2
9,ISMR,≤ 0.2
10,LGVQ,≤ 0.2
11,AWST,≤ 0.2
12,QTDG,≤ 0.2
13,FLRC,≤ 0.2
14,QPLF,≤ 0.2
15,DRTT,≤ 0.2
16,VCFG,≤ 0.2
17,AMCG,≤ 0.2
18,QDSL,≤ 0.2
19,AFGL,≤ 0.2
20,MHMS,≤ 0.2
21,AAVS,≤ 0.2
22,SRET,≤ 0.2
23,WSKV,≤ 0.2
24,WAMH,≤ 0.2
25,IANR,≤ 0.2

row,Variant,one-hybrid fitness for binding NBS DNA
1,GMVR,≤ 0.2
2,WHQC,≤ 0.2
3,NSLA,≤ 0.2
4,ASAC,≤ 0.2
5,FHRF,≤ 0.2
6,NSGL,≤ 0.2
7,RCLY,≤ 0.2
8,QESL,≤ 0.2
9,EVNG,≤ 0.2
10,QADL,≤ 0.2
11,IKYW,≤ 0.2
12,SAQG,≤ 0.2
13,STYY,≤ 0.2
14,TSGG,≤ 0.2
15,LYNC,≤ 0.2
16,MMWS,≤ 0.2
17,MKNI,≤ 0.2
18,RSQP,≤ 0.2
19,LLAR,≤ 0.2
20,KKKG,≤ 0.2
21,FSGR,≤ 0.2
22,AAKL,≤ 0.2
23,ADLC,≤ 0.2
24,NIVA,≤ 0.2
25,PTSL,≤ 0.2

row,Variant,one-hybrid fitness for binding NBS DNA
1,AKHA,≤ 0.2
2,WSDE,≤ 0.2
3,RTQH,≤ 0.2
4,EHAY,≤ 0.2
5,SLMH,≤ 0.2
6,LRRF,≤ 0.2
7,QQTR,0.648
8,CARY,≤ 0.2
9,TTLR,≤ 0.2
10,WVRG,≤ 0.2
11,TWPF,≤ 0.2
12,NDTR,≤ 0.2
13,KVWC,≤ 0.2
14,FKSA,≤ 0.2
15,TIMT,≤ 0.2
16,YFTD,≤ 0.2
17,WGFC,≤ 0.2
18,QHAT,0.41
19,SNVD,≤ 0.2
20,QMAS,0.389
21,PELS,≤ 0.2
22,GKNT,≤ 0.2
23,DKTK,≤ 0.2
24,GSQT,≤ 0.2
25,QMCF,≤ 0.2

row,Variant,one-hybrid fitness for binding NBS DNA
1,SSSK,≤ 0.2
2,SNVI,≤ 0.2
3,YRSA,≤ 0.2
4,KEDG,≤ 0.2
5,RRDR,0.666
6,CVVC,≤ 0.2
7,GYRM,≤ 0.2
8,CVCL,≤ 0.2
9,RFME,≤ 0.2
10,TYHN,≤ 0.2
11,HPDI,≤ 0.2
12,DYNW,≤ 0.2
13,DTRS,≤ 0.2
14,TMNR,≤ 0.2
15,QLQP,≤ 0.2
16,YKHV,≤ 0.2
17,KERC,≤ 0.2
18,IHRF,≤ 0.2
19,KRKH,0.482
20,WCVC,≤ 0.2
